Assay results: publication PMC4336329 (PLoS ONE, 2015)
Hit rate of the full screen: of about 310,000 compounds, about 14,000 (4.5%) showed an effect of 50% or more. The effect is printed as a negative number. This is one part of the list.

Biological target: human ether-à-go-go-related gene (hERG) potassium channel (human, UniProt Q12809)
Assay: primary screen, population patch clamp on CHO cells stably expressing hERG
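Further: peak tail current of the secondary pulse compared with the same well before compound.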

human ether-à-go-go-related gene (hERG) potassium channel, sequence (Q12809 whole entry, looked up): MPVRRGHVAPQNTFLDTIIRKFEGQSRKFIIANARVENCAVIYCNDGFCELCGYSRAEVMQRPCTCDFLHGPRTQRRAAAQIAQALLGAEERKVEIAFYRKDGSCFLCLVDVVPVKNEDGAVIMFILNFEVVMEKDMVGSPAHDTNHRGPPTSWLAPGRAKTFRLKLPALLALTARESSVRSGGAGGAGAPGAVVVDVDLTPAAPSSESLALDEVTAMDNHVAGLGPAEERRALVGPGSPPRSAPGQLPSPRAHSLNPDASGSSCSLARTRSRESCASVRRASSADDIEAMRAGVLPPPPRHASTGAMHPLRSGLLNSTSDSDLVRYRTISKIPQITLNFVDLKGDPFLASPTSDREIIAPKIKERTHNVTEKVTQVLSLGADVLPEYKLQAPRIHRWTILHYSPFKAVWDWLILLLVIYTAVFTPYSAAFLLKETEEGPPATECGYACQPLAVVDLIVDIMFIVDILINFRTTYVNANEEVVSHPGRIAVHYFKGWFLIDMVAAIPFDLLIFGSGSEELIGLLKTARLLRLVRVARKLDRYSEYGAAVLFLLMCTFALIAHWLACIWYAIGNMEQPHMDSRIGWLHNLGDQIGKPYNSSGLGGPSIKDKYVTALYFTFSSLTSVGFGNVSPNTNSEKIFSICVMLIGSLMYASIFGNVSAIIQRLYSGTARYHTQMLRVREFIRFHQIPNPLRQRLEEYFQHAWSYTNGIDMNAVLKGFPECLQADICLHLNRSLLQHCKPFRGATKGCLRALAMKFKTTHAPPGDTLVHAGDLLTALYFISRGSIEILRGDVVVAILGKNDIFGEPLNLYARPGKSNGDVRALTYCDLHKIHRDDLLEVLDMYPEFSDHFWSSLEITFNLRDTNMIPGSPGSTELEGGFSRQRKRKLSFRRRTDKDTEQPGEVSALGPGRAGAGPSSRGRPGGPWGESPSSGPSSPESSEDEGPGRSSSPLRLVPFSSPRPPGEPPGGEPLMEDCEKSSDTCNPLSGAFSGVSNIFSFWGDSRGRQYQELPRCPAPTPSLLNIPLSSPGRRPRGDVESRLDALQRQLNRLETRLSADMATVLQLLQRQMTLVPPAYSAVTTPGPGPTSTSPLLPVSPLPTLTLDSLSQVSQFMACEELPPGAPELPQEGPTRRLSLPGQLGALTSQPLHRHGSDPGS

Compared with `COC(=O)c1ccc(C2C(C(=O)c3ccco3)=C(O)C(=O)N2CC2CCCO2)cc1` (stereo not drawn), `COC(=O)c1cc(NC(=O)c2ccco2)ccc1N1CCOCC1` is higher in “hERG current change (%, negative = inhibition) at 10uM” value: -29.8% for the first, 5.55% for the second.

Compared with `Cc1ccccc1-c1ccc(Nc2ccc(N3CCOCC3)cc2)nn1`, `Cc1cc(OCC(=O)Nc2ccc(CN3CCOCC3)cc2)ccc1Cl` is higher in “hERG current change (%, negative = inhibition) at 10uM” value: -76% for the first, -51.8% for the second.

First: COc1ccc(CC(=O)NNC(=S)NCC2CC2)cc1OC
Second: COc1ccc(CCNC(=O)COC(=O)c2cccs2)cc1OC
The “hERG current change (%, negative = inhibition) at 10uM” value of the first is higher: 12.1% for the first, 11.8% for the second.

Going from `Cc1cccc(NC(=O)Cn2nnc3sc4c(c3c2=O)CC(C)(C)OC4)c1` to `CCn1nccc1C(=O)Nc1ccc(C)c(C)c1`, the “hERG current change (%, negative = inhibition) at 10uM” value rises from 3.62% to 8.67%.

Compared with `COc1ccccc1NC(=O)CCC(=O)OCc1ccc(Cl)cc1`, `COc1ccc(NC(=O)COC(=O)CNS(=O)(=O)/C=C/c2ccccc2)cc1OC` is higher in “hERG current change (%, negative = inhibition) at 10uM” value: -0.804% for the first, 9.14% for the second.

Going from `O=C(CSC1=NS(=O)(=O)c2cc(F)ccc2N1)NCc1ccccc1` to `O=C(Cc1ccccc1)NCc1n[nH]c(=S)n1-c1ccccc1`, the “hERG current change (%, negative = inhibition) at 10uM” value rises from -1.82% to 21.2%.

First: CCN(CC)CCCn1c(=S)[nH]c2ccccc2c1=O
Second: CCCCNC(=O)/C=C1\Sc2ccccc2NC1=O
The “hERG current change (%, negative = inhibition) at 10uM” value of the first is lower: -25.7% for the first, 2.9% for the second.

Compared with `CCN1C(=O)/C(=C2/C=CC=CN2C)OC1=S`, `CCN1CCN(C(=O)COc2cc(=O)n(CC)c3ccccc23)CC1` is higher in “hERG current change (%, negative = inhibition) at 10uM” value: -11.4% for the first, -2.67% for the second.

Going from `O=C1C[C@@H]2c3c(cccc3CN1Cc1ccc(F)cc1)C[C@@H](O)[C@H]2O` to `O=c1cc(N2CCc3ccccc3C2)[nH]c(=O)n1-c1ccc(Cl)cc1`, the “hERG current change (%, negative = inhibition) at 10uM” value falls from 4.23% to 3.07%.

Going from `COCCN(C(=O)c1ccc(COc2ccccc2)o1)c1c(N)n(CC(C)C)c(=O)[nH]c1=O` to `COc1cccc(CNC(=O)CCn2c(=O)oc3ccccc32)c1`, the “hERG current change (%, negative = inhibition) at 10uM” value falls from -2.22% to -3.37%.

Going from `CCc1ccc(CNc2ccc3c(c2)ncn3CC)cc1` to `CCCn1c(C(=O)c2ccc(OC)cc2)nc2ccccc21`, the “hERG current change (%, negative = inhibition) at 10uM” value rises from -19.7% to 5.03%.

Going from `Cc1ccc(NC(=O)/C=C/c2cccs2)c([N+](=O)[O-])c1` to `c1csc(Cn2c(-c3cccs3)nc3ccccc32)c1`, the “hERG current change (%, negative = inhibition) at 10uM” value falls from 0.518% to -68.6%.

First: NS(=O)(=O)c1ccc(CCNC(=O)C(=O)NCC2OCCN2S(=O)(=O)c2cccs2)cc1 (stereo not drawn)
Second: COc1ccccc1C(=O)NCCC(=O)NN1C(=O)NC2(CCCCC2)C1=O
The “hERG current change (%, negative = inhibition) at 10uM” value of the first is lower: 14.9% for the first, 37.3% for the second.

First: CCN(CC)S(=O)(=O)c1ccc(OC)c(NC(=O)c2cc(C)on2)c1
Second: CC(=O)Nc1cc(C)c(S(C)(=O)=O)c(C)c1
The “hERG current change (%, negative = inhibition) at 10uM” value of the first is higher: 15.3% for the first, 5% for the second.

First: CCOc1ccc(NC(=O)c2cc3ccccc3cc2O)cc1
Second: COc1ccc(C(=O)NCCONC(=O)c2ccc(OC)cc2)cc1
The “hERG current change (%, negative = inhibition) at 10uM” value of the first is higher: 19.8% for the first, -4.46% for the second.

First: NC(=S)Nc1cccc2cnccc12
Second: O=C(Nc1ccccc1F)NC1CCCc2ccccc21 (stereo not drawn)
The “hERG current change (%, negative = inhibition) at 10uM” value of the first is higher: 1.4% for the first, -0.51% for the second.

First: Cc1ccn2c(Nc3ccccc3C)c(-c3ccccn3)nc2c1
Second: COc1cc(NC2c3ccccc3C(=O)N2Cc2ccccc2Cl)cc(OC)c1 (stereo not drawn)
The “hERG current change (%, negative = inhibition) at 10uM” value of the first is higher: -9.6% for the first, -22.2% for the second.

Going from `Cc1c(Cl)cccc1S(=O)(=O)N1CCC(C(=O)NNC(=O)C2CC2)CC1` to `COc1ccccc1CCC(=O)N1CCC(n2nccc2NC(=O)C2CCOC2)CC1` (stereo not drawn), the “hERG current change (%, negative = inhibition) at 10uM” value rises from 1.6% to 23.1%.

Going from `COc1ccc(N2CC(NC(=O)NCCC(C)C)CC2=O)cc1` (stereo not drawn) to `CCOP(=O)(c1ccc(N(C)C)cc1)C(O)c1ccc(OC)cc1` (stereo not drawn), the “hERG current change (%, negative = inhibition) at 10uM” value rises from -19.2% to 6.28%.

Going from `COc1ccc(Cl)cc1NC(=S)NCCN1CCOCC1` to `CCC(C)N(C)C1CCN(C(=S)Nc2cccc(OC)c2)CC1` (stereo not drawn), the “hERG current change (%, negative = inhibition) at 10uM” value rises from -1.72% to 8.14%.

First: CCn1c(=O)c2sccc2n(CC(=O)NC2CCCCC2)c1=O
Second: O=C(CSc1nc2nc[nH]c2c(=O)[nH]1)NC1CCCCC1
The “hERG current change (%, negative = inhibition) at 10uM” value of the first is lower: 0.443% for the first, 6.5% for the second.

Compared with `CCOCCCNC(=S)N1CCC(C(=O)c2ccc(C)cc2)CC1`, `Cc1ccc(OCCCCCCN2CCNCC2)cc1.O=C(O)C(=O)O` is lower in “hERG current change (%, negative = inhibition) at 10uM” value: -8.15% for the first, -11.6% for the second.

Going from `CSc1ccc(-c2nc(CN(C)C3CCOC3)c(C)o2)cc1` (stereo not drawn) to `CC(C)CC(c1nnnn1Cc1ccc(F)cc1)N1CCC(C(N)=O)CC1` (stereo not drawn), the “hERG current change (%, negative = inhibition) at 10uM” value rises from -31.4% to -7.55%.

First: COc1cccc(NS(=O)(=O)c2cc3c(cc2C)NC(=O)CO3)c1
Second: COc1ccc(/C=N/NC(=O)CN2CCCc3ccccc32)c(OC)c1
The “hERG current change (%, negative = inhibition) at 10uM” value of the first is lower: -38.7% for the first, 2.09% for the second.

Compared with `CCOC(=O)c1ccccc1NC(=O)CSc1nnc(Cc2cccn2C)n1-c1ccc(F)cc1`, `CCCN1C(=O)c2cc(C(=O)Nc3ccc(OC)c(OC)c3)ccc2C1Nc1ccc(OC)c(OC)c1` (stereo not drawn) is higher in “hERG current change (%, negative = inhibition) at 10uM” value: -24% for the first, 8.71% for the second.

First: FC(F)(F)c1cc(-c2ccco2)nc(NCc2ccccc2)n1
Second: CN(C(=O)/C(N=Nc1cccc(C(F)(F)F)c1)=C(\O)C(F)(F)F)c1ccccc1
The “hERG current change (%, negative = inhibition) at 10uM” value of the first is lower: 0.0568% for the first, 8.8% for the second.

Going from `COCCNC(=O)C/C(C)=N/NC(=O)C(=O)NC1CCCCC1` to `Cc1ccn2c(CNCC3COCCO3)c(C(=O)N3CCCCCC3)nc2c1` (stereo not drawn), the “hERG current change (%, negative = inhibition) at 10uM” value rises from -13.5% to 7.77%.

Compared with `CCC(CC(C)(C)O)C(=O)NNC(=S)Nc1ccccc1` (stereo not drawn), `CCCN1CN(Cc2ccco2)c2nc3ccccc3n2C1` is lower in “hERG current change (%, negative = inhibition) at 10uM” value: 5.73% for the first, -48.8% for the second.

First: Cc1cc(=O)c2ccc(C(F)(F)F)cc2[nH]1
Second: Cc1cc(Nc2nn(C)c(N)c2C#N)ccc1F
The “hERG current change (%, negative = inhibition) at 10uM” value of the first is higher: 15.4% for the first, -14.8% for the second.

Going from `COC(=O)CN1C(=O)CSc2ncccc21` to `CC(=O)N(CCN(C)C)c1nc2cc3c(cc2s1)OCCO3.Cl`, the “hERG current change (%, negative = inhibition) at 10uM” value rises from 0.353% to 10.6%.
